From the BET-seq Pho4 binding data (Le et al. 2018)
The list shows a part of the results. The energies were worked out here from pooled read counts, against the library average; single values are noisy.

Each sequence was assayed against T1, Pho4 (S. cerevisiae) (UniProt P07270) (assay: relative binding free energy (BET-seq); higher = weaker binding). Conditions: reference: library average.
T1 sequence: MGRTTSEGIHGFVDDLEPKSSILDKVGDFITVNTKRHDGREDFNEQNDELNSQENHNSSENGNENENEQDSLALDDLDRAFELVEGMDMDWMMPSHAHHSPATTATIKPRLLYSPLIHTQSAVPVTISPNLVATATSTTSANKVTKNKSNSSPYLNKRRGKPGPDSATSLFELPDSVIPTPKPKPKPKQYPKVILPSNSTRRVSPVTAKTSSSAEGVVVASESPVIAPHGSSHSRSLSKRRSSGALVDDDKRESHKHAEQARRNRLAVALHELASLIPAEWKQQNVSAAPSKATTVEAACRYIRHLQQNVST

Relative binding free energy, 0.22 kcal/mol:
TTGTTCACGTGCGGAA
TGGGACACGTGAGTAT

Relative binding free energy, 0.35 kcal/mol:
AATTACACGTGAGGGA
GGGATCACGTGTTCGA
ACTATCACGTGAAGTG

Relative binding free energy, -0.2 kcal/mol:
TGTTGCACGTGCGCAG

Relative binding free energy, 0.09 kcal/mol:
TAGACCACGTGTTTTG
ATGTTCACGTGCGTGG
TAGATCACGTGGGTGT
TGGATCACGTGGGGTT

Relative binding free energy, -0.23 kcal/mol:
ATTGGCACGTGGCGTC

Relative binding free energy, 0.21 kcal/mol:
TTGATCACGTGTATGT
GACGTCACGTGTGGGG
GATATCACGTGCGGTT
CTGTTCACGTGGGTAA
TTAGACACGTGTGAAA

Relative binding free energy, -0.17 kcal/mol:
ATTAGCACGTGTTGGC
TTTGCCACGTGTGGTC

Relative binding free energy, -0.22 kcal/mol:
TCGGGCACGTGCAGGG
TATAGCACGTGGGATG

Relative binding free energy, -0.06 kcal/mol:
TGTGGCACGTGTTTAG
ATGCGCACGTGTAGGT
TAGCGCACGTGGATTT
GCTAGCACGTGGAGTG

Relative binding free energy, 0.16 kcal/mol:
GGTTCCACGTGGAGAT
TGGATCACGTGTGATA
TCGATCACGTGTGGTT
GGCAGCACGTGTTTTT
TACATCACGTGGTCGT
TGGGTCACGTGGGAAC

Relative binding free energy, 0.18 kcal/mol:
TTTTGCACGTGTAGGA
GACTGCACGTGTTTTT
TTGTCCACGTGTGAGT
GAGGTCACGTGGAGGA
GATTGCACGTGAGCGT

Relative binding free energy, -0.03 kcal/mol:
TGCAGCACGTGTATTG
TTTACCACGTGATGTG
GGTTGCACGTGCTTGA
AGCGTCACGTGGCGGG
CGAAGCACGTGTAGGG
CTAAGCACGTGTGAGT

Relative binding free energy, -0.07 kcal/mol:
TGGGGCACGTGATCTG
GTAGACACGTGTGTAT
ATTGGCACGTGTTCGC
AGATACACGTGGGATT
GTGCGCACGTGCGGTG
TTACACACGTGTAGGT

Relative binding free energy, 0.17 kcal/mol:
AGGGTCACGTGACGGG
TTGGCCACGTGAGTTA
GGCTTCACGTGGGGCG
TCTTGCACGTGGAGTT
ATAGACACGTGAGTAG

Relative binding free energy, -0.02 kcal/mol:
ATAGACACGTGGTTTG
ATGGACACGTGAGCGG
TGGGTCACGTGGTGCC
GAGGCCACGTGGTGAT
TCTGGCACGTGTCAGT
ATTGCCACGTGTATTT

Relative binding free energy, 0.1 kcal/mol:
TAGGACACGTGTGGTT
ATCTGCACGTGTACGG
GGGCGCACGTGAGCGT

Relative binding free energy, 0.25 kcal/mol:
TGCATCACGTGTTTAT
TTTTTCACGTGGTTTC
ATTGACACGTGAGAGT
ATTATCACGTGTTGAC
CATTTCACGTGGGAAT
TGTCTCACGTGTAGTG
ATGATCACGTGTCGGA
TAATTCACGTGTGTCT
CAGTTCACGTGTGTGA

Relative binding free energy, 0.38 kcal/mol:
AAATTCACGTGTCAGG
TGATTCACGTGTGGGG

Relative binding free energy, 0.07 kcal/mol:
TTTATCACGTGTGCTA
TTCGTCACGTGCAGTG
ATTCACACGTGTTGGG
AGTGGCACGTGTGATT
GATTACACGTGGTGTG

Relative binding free energy, 0.01 kcal/mol:
TTATACACGTGTTGTA
TGCTACACGTGGTAGT
GTGTGCACGTGATAAG
TATTACACGTGGTGAG

Relative binding free energy, 0.04 kcal/mol:
CTCGTCACGTGGGTGA
GTCGTCACGTGTGTGC

Relative binding free energy, 0.23 kcal/mol:
GCATTCACGTGTGGTT
GGTATCACGTGAGTAA

Relative binding free energy, 0.13 kcal/mol:
CCAGTCACGTGTGGTT
GGCAACACGTGTGTTT

Relative binding free energy, 0.03 kcal/mol:
GAGTGCACGTGTTTTT
TTAATCACGTGGGTGG
TGGCACACGTGTGGAA
GATGGCACGTGTTTTG
AGAAACACGTGTTGTA

Relative binding free energy, -0.08 kcal/mol:
TGTTGCACGTGCCTAG
GGGACCACGTGCGGTG
GTGAGCACGTGTTCGG
ATCGGCACGTGGTGGC
TCTGGCACGTGTTAGT
TTGTCCACGTGGGCAT

Relative binding free energy, 0.08 kcal/mol:
TGGCACACGTGTAGAG
TGTCTCACGTGGGGAG

Relative binding free energy, -0.34 kcal/mol:
ACGTGCACGTGGGGCA

Relative binding free energy, 0.24 kcal/mol:
GAGGACACGTGTGAGG
TTTGACACGTGAATGC
AATGTCACGTGAGTGC
TGCATCACGTGATTGA

Relative binding free energy, 0.36 kcal/mol:
GCCGTCACGTGTTAGT
CTGTTCACGTGAATGG

Relative binding free energy, 0.14 kcal/mol:
AGTTCCACGTGAGGTG
GTTGTCACGTGGTCAT
AGCATCACGTGAGGGG
GTTATCACGTGCGTAT

Relative binding free energy, -0.28 kcal/mol:
TCACGCACGTGGGGTG

Relative binding free energy, 0.4 kcal/mol:
ATCGTCACGTGAGTTT

Relative binding free energy, -0.04 kcal/mol:
CGTAGCACGTGAGTGT
TTATGCACGTGGGAAC
TAATGCACGTGTGAGG

Relative binding free energy, -0.16 kcal/mol:
ATGGACACGTGGTGCG

Relative binding free energy, -0.05 kcal/mol:
CTCGGCACGTGTGTGG
GTTGCCACGTGGGAGG

Relative binding free energy, 0.27 kcal/mol:
GGGTTCACGTGTGCGC
ACAGGCACGTGAGGGC
ATTGTCACGTGATGAT
TAAGACACGTGATGTT
GGTTCCACGTGAGGTT

Relative binding free energy, 0.28 kcal/mol:
GTTGTCACGTGACATT
AGAGTCACGTGAGGTG
CGCTTCACGTGGTTTT

Relative binding free energy, 0.11 kcal/mol:
TGTTGCACGTGTTTCT
ATGCTCACGTGGTGCT
GGTGACACGTGGACTT
AGTCTCACGTGTAAGT
TGTGTCACGTGTAGGA

Relative binding free energy, 0.15 kcal/mol:
TACTTCACGTGGGTTG
GGGATCACGTGCGTTT
CTAGTCACGTGTGGGC
GGTGACACGTGTATGT
GATATCACGTGTGTTG

Relative binding free energy, 0.33 kcal/mol:
TGATTCACGTGTTAAT

Relative binding free energy, 0.19 kcal/mol:
GAGGGCACGTGAGTGT
TAGGTCACGTGATTGA

Relative binding free energy, 0.2 kcal/mol:
AGATTCACGTGGTGTG
TGGTACACGTGGAAGA
TGGGTCACGTGATCGC
ATTTGCACGTGAGCTA
GCTGTCACGTGTCAGG
TGTTACACGTGTGGCC
GATTGCACGTGGAGGC
ACTTTCACGTGTATTA
GGTGGCACGTGAGTTA

Relative binding free energy, -0.12 kcal/mol:
CAGTGCACGTGGGGCC
GTACGCACGTGGGCGA
TATCGCACGTGTAGGG
TGGGCCACGTGTCTTG

Relative binding free energy, -0.01 kcal/mol:
GAAAGCACGTGGTTGG
TGGAGCACGTGATCGG
TAGGGCACGTGTTGAC
TTTTGCACGTGGGAGG
TTAAACACGTGGTAAG
CAGTGCACGTGAGGTA
GTCAACACGTGTTATT
TGAAACACGTGTTCGT
GGCAGCACGTGGTTAG

Relative binding free energy, -0.11 kcal/mol:
TGTAGCACGTGCGGAG
AGAAGCACGTGTGGTG
AGTTGCACGTGGGTTT
TTTGGCACGTGGGATG
GTAGTCACGTGGGGCC

Relative binding free energy, -0.1 kcal/mol:
TGTTGCACGTGCATGT
AGTCGCACGTGTTGTA
ATGGGCACGTGCGCGC

Relative binding free energy, 0.05 kcal/mol:
CTATTCACGTGGTGGT
TGGGACACGTGTACGA
GTGTGCACGTGTATAA
AGTATCACGTGGGTCG
TTATGCACGTGATATT
TTTGTCACGTGTCTGC
TGAATCACGTGGTAGA

Relative binding free energy, 0.31 kcal/mol:
TAGCTCACGTGCGGTT
TAGGACACGTGAAGGA

Relative binding free energy, 0.45 kcal/mol:
GAATTCACGTGCTGTG

Relative binding free energy, 0.12 kcal/mol:
TGGGACACGTGTTAAC
AATTACACGTGCTTGT
GGTCTCACGTGGGCTG
AGTCACACGTGCAGGG
TGGCTCACGTGTTTTT

Relative binding free energy, -0.21 kcal/mol:
TGGTGCACGTGGGCAG

Relative binding free energy, -0.19 kcal/mol:
ATGGGCACGTGCGGTG

Relative binding free energy, 0.29 kcal/mol:
GTATTCACGTGTTGTA
TGTATCACGTGAGGAA
TATTTCACGTGGTTAC

Relative binding free energy, 0.32 kcal/mol:
TGGTGCACGTGAGCTC

Relative binding free energy, 0.02 kcal/mol:
TGTGGCACGTGACTGT
AGGGCCACGTGGTTCA
TGCAGCACGTGTGTAA
TCTAACACGTGTGTGG

Relative binding free energy, 0.26 kcal/mol:
GTGTACACGTGAGTAG
TGGATCACGTGACGGG
TGGCCCACGTGAAGGT
GTTGACACGTGAGGTA

Relative binding free energy, -0.14 kcal/mol:
AATGACACGTGGGAGT
TTGCGCACGTGTGGCG

Relative binding free energy, -0.18 kcal/mol:
GGACGCACGTGGGTAG
GGGGCCACGTGGAGGT
ATTACCACGTGGTTGG
ACGGGCACGTGCGGGC

Relative binding free energy, 0 kcal/mol:
GAGTGCACGTGGTTAG
GTGTGCACGTGTGCAG
AGGGGCACGTGTTGGG
TGAGGCACGTGATTGG
CCAGGCACGTGGTTTT
GTAAGCACGTGGAAGT
AAATGCACGTGATGTA
GGGGGCACGTGGAGTT
TGTTGCACGTGTCGAT

Relative binding free energy, -0.15 kcal/mol:
TATGGCACGTGGCTGT
CGCAGCACGTGTTGGT
TTGGGCACGTGGCATC

Relative binding free energy, -0.09 kcal/mol:
CCTGGCACGTGTTGTA
GTAGGCACGTGGTGAA
ATACACACGTGTTTGG
TGCCACACGTGGGAGG
GTAAACACGTGGCGTT

Relative binding free energy, 0.06 kcal/mol:
GGCTGCACGTGGTACG
GACTGCACGTGTTAGT
GGTCGCACGTGGGGAC
TGTGTCACGTGGTTAG
CACTTCACGTGTGGGG
AGAGTCACGTGCGAGG
TTGTGCACGTGACAGG

Relative binding free energy, 0.3 kcal/mol:
TGTTTCACGTGCTTGT
